{"source": "paper PMC12136788", "binders": {"B1": {"name": "chr12:84935825:84935826:-_ENSMUSG00000042628_ENSMUST00000048319|mus_hu|FALSE|FALSE (ssRNA)", "RNA": "GGGAGUUCUACAGUCCGACGAUCUCCCGCUGCAAGCGUAACUUUCCUGGCACAUCAGCCCCGGAUUCAGGCCCUUCUCUGCUGGGGAAGUCUGGGCACUCAUACUCACGCUGGUAAGGAAACACACCCACCAUAUAAUAGUCACAACAGAGGAUUGAGCAUCA"}, "B2": {"name": "45071528_45071648_1140_3pUTR_ENSMUSG00000048232_ENSMUST00000052236|mouse|control|control (ssRNA)", "RNA": "GGGAGUUCUACAGUCCGACGAUCUCCUCCCCGCUGGGGCUCAGGCCACCGUCACUGCUGUCUGGAGUCUGGGCCACUCUCUCCCCAUCGCUGCCCACCUCUGCCUCCUUGGAGCCUGGCUUGGGAGAGCUACAGACUGGGCUUCAACAGAGGAUUGAGCAUCA"}, "B3": {"name": "chr5:145543945:145543946:-_ENSG00000133706_ENST00000545646|hu_hu|hu_hu_hu_mus_True|58_58 (ssRNA)", "RNA": "GGGAGUUCUACAGUCCGACGAUCCUGAACGGCCAGUGGUGGGAAAUAAUCAAGCCAGUGCUCUGCUUCAGAAAACUUUACUAUCUCGUCAUCAGAGAGCCCAAGGGAUUUCAUAAUGUCCCACUGGUACUUAGAAGAUCCUGCCAACAGAGGAUUGAGCAUCA"}, "B4": {"name": "chr16:94664741:94664742:+_ENSMUSG00000040785_ENSMUST00000117648|mus_hu|mus_mus_mus_hu_False|58_108 (ssRNA)", "RNA": "GGGAGUUCUACAGUCCGACGAUCUGGCAUGGAUCUUGGUAGCUGAUAUUCAGGAGAAAGGCUGGCCAAGGGUGUAUAAAUGCUAGUGUACUGGGGCAAACCUGGUAACACGUUUAUGUAUGCUGGCGGUGUCUGGGUGAUAUCCAACAGAGGAUUGAGCAUCA"}, "B5": {"name": "chr6:114281168:114281169:-_ENSG00000196591_ENST00000368632|hu_hu|hu_hu_hu_mus_True|38_68 (ssRNA)", "RNA": "GGGAGUUCUACAGUCCGACGAUCUUCCAUUUUUCGGUAUAAACCAUAAUUUAGCAGCAAGUUAUGAGUCAUGCGGAUUCUAUGAGGCUUCAUGGGAUGACCCUGUCCAUAAUAAUAAUUGCCAAUAUCACCAUCAUAGUAGUACAACAGAGGAUUGAGCAUCA"}, "B6": {"name": "chr3:9412954:9412955:+_ENSG00000134077_ENST00000452837|hu_mus|hu_hu_hu_mus_False|28_108 (ssRNA)", "RNA": "GGGAGUUCUACAGUCCGACGAUCGGUUGAUACAUCCUCUUUGAUGGCUGGAUUUUCAUAAUAGUCCAAGAUAUGUGAAUCUGAAGUGCUGCUGGCAUGCUUUUUCUUAACAUUUCUCUCAUCUGCUUUGUCUCCUUGUCCACACAACAGAGGAUUGAGCAUCA"}, "B7": {"name": "chr3:103732867:103732868:+_ENSMUSG00000044098_ENSMUST00000106806|mus_mus|FALSE|FALSE (ssRNA)", "RNA": "GGGAGUUCUACAGUCCGACGAUCAAAAUUAAAAGCAAAGUAGUCCAAGAAGUCUGGGAGAUAAGCGGCCGCUCCAUGCACUAUUGCUAACGCAUAGUACGCAGCGUUUUUCUCAUUUUCACUGAAUGUCAAAGCAAGAAACUCCAACAGAGGAUUGAGCAUCA"}, "B8": {"name": "chr1:244855233:244855234:+_ENSG00000121644_ENST00000302550|hu_mus|hu_hu_hu_mus_True|88_108 (ssRNA)", "RNA": "GGGAGUUCUACAGUCCGACGAUCCAUUAAAUGAUAAGCGUUGCCCUUGUAUUCUUUCCCCAGUUCUUCUACAAUUUUCUCUAUAUCAUCUUCUAGAAAGUCCGUACUUCCUAGAACAACAGCUUCUUUAAAUUUAAAUGUUUCCAACAGAGGAUUGAGCAUCA"}, "B9": {"name": "chr8:124405102:124405103:-_ENSMUSG00000040010_ENSMUST00000045557|mus_mus|FALSE|FALSE (ssRNA)", "RNA": "GGGAGUUCUACAGUCCGACGAUCCCCAAAAAAACAAAAAGCCUCACAAAACAGCAGACCUCUGUACCCCCCCCCCAGUCUAAUGUAACAGGCUAGCCAUUAAUACAAUAGUAAAAGACAUUAUAACCACAGCACUAUCUCAGGCAACAGAGGAUUGAGCAUCA"}, "B10": {"name": "129281792_129283504_579_CDS_ENSG00000156709_ENST00000287295|human|control|control (ssRNA)", "RNA": "GGGAGUUCUACAGUCCGACGAUCUAGCAGGAAAGGAACAUGACUUGGCGCCUUGUCUUGAGGAACUUCCUCUCCUUCUGAAGCAGAUAACGCGGCCUUUUUCUGUUUCUGUUCUGGUGUCAGCCCUAACCCUGAAAUUCUUUCCAACAGAGGAUUGAGCAUCA"}, "B11": {"name": "chr5:107067165:107067166:-_ENSMUSG00000049606_ENSMUST00000112696|mus_mus|motif|central (ssRNA)", "RNA": "GGGAGUUCUACAGUCCGACGAUCAACUAAAGCAGAGGUAGGUACUUUUUUAAUGGAAUGGGUUGGAUUCUUAGCAUGUGCGGCAUCUGAUAACAAAAACAGAACUUGGUGUUGACUUGCUUUUUGUGGUGUAGACAGCUGAUGCAACAGAGGAUUGAGCAUCA"}, "B12": {"name": "chr7:54825262:54825263:-_ENSG00000132432_ENST00000352861|hu_hu|hu_hu_hu_mus_False|48_108 (ssRNA)", "RNA": "GGGAGUUCUACAGUCCGACGAUCCUGACUUGGCUCAUCCACAAACUGCAUUACCUGAUCCAUGUUUGUUGGAUGGCGGAUUGAGAGUGCCAGGGACCGUAGCUCAGGAGAGAACCGAGCCCAACGGAACCGGAAGCUGGCAACCAACAGAGGAUUGAGCAUCA"}, "B13": {"name": "chr8:112342892:112342893:+_ENSMUSG00000031731_ENSMUST00000093157|mus_mus|FALSE|FALSE (ssRNA)", "RNA": "GGGAGUUCUACAGUCCGACGAUCAUUAAGAUCAUUCUUGAUACAGUUGGUCAUGAGAAGAUGCACAUCUUGUCUUUCAUCUAAUAAUAGCAUUGCUCCUAAAUAGCCAAUGCGUUUGUCUGUGAAUUUUUGUGAGGCGAUUAGCAACAGAGGAUUGAGCAUCA"}, "B14": {"name": "chr8:127197416:127197417:-_ENSMUSG00000037300_ENSMUST00000118134|mus_mus|motif|central (ssRNA)", "RNA": "GGGAGUUCUACAGUCCGACGAUCUUUUGCUAUUUUGCUGAAGGCCUCUGAGCCAGGGGCUGUCAUGGCUUCAAAGUCGACGGACUGGAAAAGAGGAGGCGCAGGACGUGAUAAAAGGAAGGAAAUGGUGUGGGGUCUAGCUCGCAACAGAGGAUUGAGCAUCA"}, "B15": {"name": "chr22:19452774:19452775:-_ENSG00000070010_ENST00000399523|hu_hu|hu_hu_hu_mus_False|78_108 (ssRNA)", "RNA": "GGGAGUUCUACAGUCCGACGAUCCUUUUCAUUAUAGUUGAUAGCAAUCACAUCUCCGGUGGUCAGACAGGCGAAGUUUCUCAAUGCAUUUUCUAAUACCGCUUUAGGGUUGGUAAUAUCCAGGAAGUCUGGGCUCUGAGGCUGCAACAGAGGAUUGAGCAUCA"}, "B16": {"name": "chr19:16452684:16452685:+_ENSMUSG00000024639_ENSMUST00000025541|perfect_dup|motif|central (ssRNA)", "RNA": "GGGAGUUCUACAGUCCGACGAUCGUUUAAGAACAGAAUAACCGAGGAGUUCUGGAACCAGGGGUAUGUGAUAAUUGUUCGGAAGAGAGCCUUGCUUUCCUCCAUUCGGUUCUCAUUGUCUGACUCCACGAGAACUUGAUCAUACAACAGAGGAUUGAGCAUCA"}, "B17": {"name": "chr14:76906223:76906224:+_ENSMUSG00000022010_ENSMUST00000022587|mus_hu|FALSE|FALSE (ssRNA)", "RNA": "GGGAGUUCUACAGUCCGACGAUCCACUUCUUCUCUGACCGCAUACAUCAAAUGGCUUUUCACUAGAUCCAUAGCUUGCUCGAUUUUGUUGUCAAUAGCUACCACACUUGCACCAGAGGAGCUAUUAUCAAGUCUCACAGAAGCCAACAGAGGAUUGAGCAUCA"}, "B18": {"name": "59820266_59820386_262_5pUTR_ENSMUSG00000035469_ENSMUST00000043227|mouse|control|control (ssRNA)", "RNA": "GGGAGUUCUACAGUCCGACGAUCAGCGCAGCUCCUCAGAGGCAGGCCGCGGGCAACGCCACGUACUCGGCUCGCCGCACACCUGGGGGAAGCGCCCGCAAGACGGAAUCCGCGGGUGCCCGGUGCGGGGUGCGCGUCGCCGGGCAACAGAGGAUUGAGCAUCA"}, "B19": {"name": "chr18:48422213:48422214:+_ENSG00000082212_ENST00000321341|hu_hu|FALSE|FALSE (ssRNA)", "RNA": "GGGAGUUCUACAGUCCGACGAUCGCUUGCCUUUUUCUUUUAUGUGCAAAUGUCGACAUGCCAAAGUACAAGUGGUGGAAACUACUCUUAACCGGGACAACAUCUUUUCUUUCACCAGAGGUCUCGCGCCGCGACAGGUGGUACCAACAGAGGAUUGAGCAUCA"}, "B20": {"name": "32800332_32819000_13448_CDS_ENSG00000115760_ENST00000421745|human|control|control (ssRNA)", "RNA": "GGGAGUUCUACAGUCCGACGAUCAACAUUUUCCCUUUUAGAUCUUAAACGGUUGGUAUAGGUAUCAACACAGGUCUUCAUUUUGGCUAACAAUGUACCAACAGAAGUUUGACAUUCUGACUGUUCUUCUUCCUCUUCACCGUUCAACAGAGGAUUGAGCAUCA"}, "B21": {"name": "chr14:70842435:70842436:-_ENSG00000213463_ENST00000256366|hu_mus|motif|central (ssRNA)", "RNA": "GGGAGUUCUACAGUCCGACGAUCAACAACCAGCAACCUGUGCUGUACUCUCAGGGACACAGCACAUCCCGCAUUACGGAAGAGGUCGGCAGCAUCUUGGUGCAGCAGGUUCUUCAGAUCUUGGCCAUUUACCGAGAGGAUCUUCAACAGAGGAUUGAGCAUCA"}, "B22": {"name": "chr9:72560005:72560006:+_ENSMUSG00000032216_ENSMUST00000034740|mus_hu|FALSE|FALSE (ssRNA)", "RNA": "GGGAGUUCUACAGUCCGACGAUCCUGUUCUGCAUUAUCAUCUUCUGAGCCACUGGUUUUAGGUAAAUAAGUCAUUUUUAGUCUCAGAUAACCUUUAACUCUUGAUUUGUGACUUCUUGGAUGAAGAACAAAAUCCUUAAAUGUCAACAGAGGAUUGAGCAUCA"}}, "note": "The list shows a part of the results."}
{"target": "T1, UNK ZnF1-3 (human, UniProt Q9C0B0 31-174)", "T1 sequence": "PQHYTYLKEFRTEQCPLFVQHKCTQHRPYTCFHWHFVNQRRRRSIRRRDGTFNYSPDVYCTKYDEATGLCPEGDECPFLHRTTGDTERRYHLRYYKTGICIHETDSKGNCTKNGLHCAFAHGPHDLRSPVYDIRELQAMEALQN", "test": "nsRBNS (natural sequence RNA bind-n-seq); RBNS binding buffer (assumed for nsRBNS): 25 mM Tris pH 7.5, 150 mM KCl, 3 mM MgCl2, 0.01% Triton X-100, 500 ug/ml BSA, 20 U/ml SUPERase-In, 4 C; UNK is unkempt and MSI1 is Musashi-1; names of the RNAs are library labels; protein concentration not given here; high values mean tight binding", "units": {"binding signal": "enrichment R"}}
{"binder": "B1", "binding signal": 1.34}
{"binder": "B2", "binding signal": 0.962}
{"binder": "B3", "binding signal": 1.22}
{"binder": "B4", "binding signal": 1.04}
{"binder": "B5", "binding signal": 1.1}
{"binder": "B6", "binding signal": 0.653}
{"binder": "B7", "binding signal": 0.759}
{"binder": "B8", "binding signal": 1.14}
{"binder": "B9", "binding signal": 2.43}
{"binder": "B10", "binding signal": 0.621}
{"binder": "B11", "binding signal": 1.57}
{"binder": "B12", "binding signal": 1.14}
{"binder": "B13", "binding signal": 0.549}
{"binder": "B14", "binding signal": 1.42}
{"binder": "B15", "binding signal": 0.969}
{"binder": "B16", "binding signal": 0.827}
{"binder": "B17", "binding signal": 1.19}
{"binder": "B18", "binding signal": 0.51}
{"binder": "B19", "binding signal": 0.834}
{"binder": "B20", "binding signal": 0.703}
{"binder": "B21", "binding signal": 1.52}
{"binder": "B22", "binding signal": 0.814}
